Results: article PMC12820563
The other results are listed elsewhere or left out. The list includes weakly bound sequences.

These sequences were tested against T1, MBP-FoxP3dN (UniProt Q99JB6) (assay: PD-seq (MBP pull-down with sequencing)). Settings: 20 mM Tris-HCl pH 7.5, 100 mM NaCl, 1.5 mM MgCl2, 0.4 uM protein, 0.1 uM dsDNA library, 30 min, room temperature, amylose pull-down; high values mean tight binding; double strand, one strand shown.
T1 sequence: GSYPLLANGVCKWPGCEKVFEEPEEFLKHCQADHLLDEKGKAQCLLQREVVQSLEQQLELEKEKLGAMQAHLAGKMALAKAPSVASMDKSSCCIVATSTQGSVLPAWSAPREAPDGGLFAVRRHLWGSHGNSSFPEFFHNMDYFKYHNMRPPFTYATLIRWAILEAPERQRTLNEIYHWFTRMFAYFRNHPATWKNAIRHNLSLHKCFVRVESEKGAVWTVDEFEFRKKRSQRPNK

Sequence | binding signal (RPM ratio (pull-down/input))
GATGATTGTTCTCCCAGCTGATGAATTATCTCTCTCGAGTAAACAAATTTTCCTAATCTTTCTGTTCAAGCGCCATCTAC | 0.321
GATGATTGTTCTCCCAGCTGATGAATTGAGGCATTCGAGTAAACAAATTTTCCTAATCTTTCTGTTCAAGCGCCATCTAC | 4.56
GATGATTGTTCTCCCAGCTGATGAATTCCGAGGTTCGAGTAAACAAATTTTCCTAATCTTTCTGTTCAAGCGCCATCTAC | 0.302
GATGATTGTTCTCCCAGCTGATGAATTACACGGTTCGAGTAAACAAATTTTCCTAATCTTTCTGTTCAAGCGCCATCTAC | 0.455
GATGATTGTTCTCCCAGCTGATGAATTGGGCGTCTCGAGTAAACAAATTTTCCTAATCTTTCTGTTCAAGCGCCATCTAC | 2.95
GATGATTGTTCTCCCAGCTGATGAATTATTTAATTCGAGTAAACAAATTTTCCTAATCTTTCTGTTCAAGCGCCATCTAC | 0.435
GATGATTGTTCTCCCAGCTGATGAATTGGTCCATTCGAGTAAACAAATTTTCCTAATCTTTCTGTTCAAGCGCCATCTAC | 0.402
GATGATTGTTCTCCCAGCTGATGAATTGGGTCCATCGAGTAAACAAATTTTCCTAATCTTTCTGTTCAAGCGCCATCTAC | 0.339
GATGATTGTTCTCCCAGCTGATGAATTCTGCCCATCGAGTAAACAAATTTTCCTAATCTTTCTGTTCAAGCGCCATCTAC | 1.28
GATGATTGTTCTCCCAGCTGATGAATTGCAGATTTCGAGTAAACAAATTTTCCTAATCTTTCTGTTCAAGCGCCATCTAC | 0.644
GATGATTGTTCTCCCAGCTGATGAATTAGCCATTTCGAGTAAACAAATTTTCCTAATCTTTCTGTTCAAGCGCCATCTAC | 1.23
GATGATTGTTCTCCCAGCTGATGAATTCCTCCGTTCGAGTAAACAAATTTTCCTAATCTTTCTGTTCAAGCGCCATCTAC | 0.255
GATGATTGTTCTCCCAGCTGATGAATTGATACCTTCGAGTAAACAAATTTTCCTAATCTTTCTGTTCAAGCGCCATCTAC | 0.687
GATGATTGTTCTCCCAGCTGATGAATTTTGATAATCGAGTAAACAAATTTTCCTAATCTTTCTGTTCAAGCGCCATCTAC | 0.576
GATGATTGTTCTCCCAGCTGATGAATTAGTATAGTCGAGTAAACAAATTTTCCTAATCTTTCTGTTCAAGCGCCATCTAC | 2.11
GATGATTGTTCTCCCAGCTGATGAATTCGTTGGGTCGAGTAAACAAATTTTCCTAATCTTTCTGTTCAAGCGCCATCTAC | 2.87
GATGATTGTTCTCCCAGCTGATGAATTCCAGCACTCGAGTAAACAAATTTTCCTAATCTTTCTGTTCAAGCGCCATCTAC | 0.373
GATGATTGTTCTCCCAGCTGATGAATTTTAGTCATCGAGTAAACAAATTTTCCTAATCTTTCTGTTCAAGCGCCATCTAC | 0.541
GATGATTGTTCTCCCAGCTGATGAATTCCTAGAATCGAGTAAACAAATTTTCCTAATCTTTCTGTTCAAGCGCCATCTAC | 0.178
GATGATTGTTCTCCCAGCTGATGAATTCCGAGACTCGAGTAAACAAATTTTCCTAATCTTTCTGTTCAAGCGCCATCTAC | 0.45
GATGATTGTTCTCCCAGCTGATGAATTAAAGCGGTCGAGTAAACAAATTTTCCTAATCTTTCTGTTCAAGCGCCATCTAC | 0.409

Sequence | binding signal (RPM ratio (pull-down/input))
GATGATTGTTCTCCCAGCTGATGAATTAGTGATATCGAGTAAACAAATTTTCCTAATCTTTCTGTTCAAGCGCCATCTAC | 0.813
GATGATTGTTCTCCCAGCTGATGAATTGTTACCATCGAGTAAACAAATTTTCCTAATCTTTCTGTTCAAGCGCCATCTAC | 1.1
GATGATTGTTCTCCCAGCTGATGAATTGGTCCCGTCGAGTAAACAAATTTTCCTAATCTTTCTGTTCAAGCGCCATCTAC | 0.305
GATGATTGTTCTCCCAGCTGATGAATTACACTGGTCGAGTAAACAAATTTTCCTAATCTTTCTGTTCAAGCGCCATCTAC | 0.443
GATGATTGTTCTCCCAGCTGATGAATTGCTCACCTCGAGTAAACAAATTTTCCTAATCTTTCTGTTCAAGCGCCATCTAC | 0.467
GATGATTGTTCTCCCAGCTGATGAATTCCCGTTTTCGAGTAAACAAATTTTCCTAATCTTTCTGTTCAAGCGCCATCTAC | 0.451
GATGATTGTTCTCCCAGCTGATGAATTATCACATTCGAGTAAACAAATTTTCCTAATCTTTCTGTTCAAGCGCCATCTAC | 0.517
GATGATTGTTCTCCCAGCTGATGAATTCAGACAGTCGAGTAAACAAATTTTCCTAATCTTTCTGTTCAAGCGCCATCTAC | 0.297
GATGATTGTTCTCCCAGCTGATGAATTGACGCAGTCGAGTAAACAAATTTTCCTAATCTTTCTGTTCAAGCGCCATCTAC | 0.764
GATGATTGTTCTCCCAGCTGATGAATTCCACTCCTCGAGTAAACAAATTTTCCTAATCTTTCTGTTCAAGCGCCATCTAC | 0.422
GATGATTGTTCTCCCAGCTGATGAATTAAATTTATCGAGTAAACAAATTTTCCTAATCTTTCTGTTCAAGCGCCATCTAC | 1.46
GATGATTGTTCTCCCAGCTGATGAATTGTCCCCCTCGAGTAAACAAATTTTCCTAATCTTTCTGTTCAAGCGCCATCTAC | 0.357
GATGATTGTTCTCCCAGCTGATGAATTCGAAAACTCGAGTAAACAAATTTTCCTAATCTTTCTGTTCAAGCGCCATCTAC | 0.246
GATGATTGTTCTCCCAGCTGATGAATTAGATCTATCGAGTAAACAAATTTTCCTAATCTTTCTGTTCAAGCGCCATCTAC | 0.433
GATGATTGTTCTCCCAGCTGATGAATTTCGCAAATCGAGTAAACAAATTTTCCTAATCTTTCTGTTCAAGCGCCATCTAC | 0.634
GATGATTGTTCTCCCAGCTGATGAATTACCCGAATCGAGTAAACAAATTTTCCTAATCTTTCTGTTCAAGCGCCATCTAC | 0.184
GATGATTGTTCTCCCAGCTGATGAATTAATCTTGTCGAGTAAACAAATTTTCCTAATCTTTCTGTTCAAGCGCCATCTAC | 0.322
GATGATTGTTCTCCCAGCTGATGAATTCCGTGGGTCGAGTAAACAAATTTTCCTAATCTTTCTGTTCAAGCGCCATCTAC | 0.539
GATGATTGTTCTCCCAGCTGATGAATTCCATTACTCGAGTAAACAAATTTTCCTAATCTTTCTGTTCAAGCGCCATCTAC | 0.607
GATGATTGTTCTCCCAGCTGATGAATTACGAACGTCGAGTAAACAAATTTTCCTAATCTTTCTGTTCAAGCGCCATCTAC | 0.383
GATGATTGTTCTCCCAGCTGATGAATTCAGGAGTTCGAGTAAACAAATTTTCCTAATCTTTCTGTTCAAGCGCCATCTAC | 0.341

Sequence | binding signal (RPM ratio (pull-down/input))
GATGATTGTTCTCCCAGCTGATGAATTCCCACAATCGAGTAAACAAATTTTCCTAATCTTTCTGTTCAAGCGCCATCTAC | 0.317
GATGATTGTTCTCCCAGCTGATGAATTTCTGAGTTCGAGTAAACAAATTTTCCTAATCTTTCTGTTCAAGCGCCATCTAC | 0.388
GATGATTGTTCTCCCAGCTGATGAATTCCTGTCGTCGAGTAAACAAATTTTCCTAATCTTTCTGTTCAAGCGCCATCTAC | 0.358
GATGATTGTTCTCCCAGCTGATGAATTGCCCCAATCGAGTAAACAAATTTTCCTAATCTTTCTGTTCAAGCGCCATCTAC | 0.554
GATGATTGTTCTCCCAGCTGATGAATTCGGTTTTTCGAGTAAACAAATTTTCCTAATCTTTCTGTTCAAGCGCCATCTAC | 1.58
GATGATTGTTCTCCCAGCTGATGAATTTGAATAGTCGAGTAAACAAATTTTCCTAATCTTTCTGTTCAAGCGCCATCTAC | 0.527
GATGATTGTTCTCCCAGCTGATGAATTCCACCCATCGAGTAAACAAATTTTCCTAATCTTTCTGTTCAAGCGCCATCTAC | 0.349
GATGATTGTTCTCCCAGCTGATGAATTTCACGCGTCGAGTAAACAAATTTTCCTAATCTTTCTGTTCAAGCGCCATCTAC | 0.675
GATGATTGTTCTCCCAGCTGATGAATTCATCACGTCGAGTAAACAAATTTTCCTAATCTTTCTGTTCAAGCGCCATCTAC | 1.07
GATGATTGTTCTCCCAGCTGATGAATTTGGATCTTCGAGTAAACAAATTTTCCTAATCTTTCTGTTCAAGCGCCATCTAC | 0.417
GATGATTGTTCTCCCAGCTGATGAATTACTCGTATCGAGTAAACAAATTTTCCTAATCTTTCTGTTCAAGCGCCATCTAC | 0.46
GATGATTGTTCTCCCAGCTGATGAATTGGGCCTTTCGAGTAAACAAATTTTCCTAATCTTTCTGTTCAAGCGCCATCTAC | 3.74
GATGATTGTTCTCCCAGCTGATGAATTCAGCGGATCGAGTAAACAAATTTTCCTAATCTTTCTGTTCAAGCGCCATCTAC | 0.264
GATGATTGTTCTCCCAGCTGATGAATTTGAATGGTCGAGTAAACAAATTTTCCTAATCTTTCTGTTCAAGCGCCATCTAC | 1.08
GATGATTGTTCTCCCAGCTGATGAATTTGTACGGTCGAGTAAACAAATTTTCCTAATCTTTCTGTTCAAGCGCCATCTAC | 1.76
GATGATTGTTCTCCCAGCTGATGAATTGCAGGACTCGAGTAAACAAATTTTCCTAATCTTTCTGTTCAAGCGCCATCTAC | 0.489
GATGATTGTTCTCCCAGCTGATGAATTCTTCGCTTCGAGTAAACAAATTTTCCTAATCTTTCTGTTCAAGCGCCATCTAC | 0.256
GATGATTGTTCTCCCAGCTGATGAATTTGATAGCTCGAGTAAACAAATTTTCCTAATCTTTCTGTTCAAGCGCCATCTAC | 1.98
GATGATTGTTCTCCCAGCTGATGAATTTGCTTGGTCGAGTAAACAAATTTTCCTAATCTTTCTGTTCAAGCGCCATCTAC | 5.74
GATGATTGTTCTCCCAGCTGATGAATTCCACGGCTCGAGTAAACAAATTTTCCTAATCTTTCTGTTCAAGCGCCATCTAC | 0.22
GATGATTGTTCTCCCAGCTGATGAATTGGAGGTATCGAGTAAACAAATTTTCCTAATCTTTCTGTTCAAGCGCCATCTAC | 0.497
